Source: the supplement of paper PMC4166925
± gives the standard deviation of the averaged measurements. Whole data set: some 33,000 sequences, median “E-score (dimensionless, -0.5 to 0.5)” near -0.049, cut for the highest 2% near 0.37. The list shows a part of the results.

Each sequence was assayed on T1, PmTbr T-box DNA-binding domain (GST fusion) (assay: PBM E-score of 8-mer (E-score (dimensionless, -0.5 to 0.5)); Tbr is Tbrain of the sea star Patiria miniata (Pm) or the sea urchin Strongylocentrotus purpuratus (Sp); higher = stronger binding preference; most listed sequences are background and not binding sites). Settings: the construct has about 5 more residues each side.
T1 sequence: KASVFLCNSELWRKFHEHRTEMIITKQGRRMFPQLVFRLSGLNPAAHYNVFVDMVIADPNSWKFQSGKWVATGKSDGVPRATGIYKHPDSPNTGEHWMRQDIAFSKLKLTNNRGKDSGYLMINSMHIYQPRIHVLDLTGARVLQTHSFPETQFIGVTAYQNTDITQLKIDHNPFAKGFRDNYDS
In short: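 GST-fused Tbr T-box DNA-binding domains (the whole T-box plus about five flanking residues) were expressed in BL21 E. coli at 20 °C and purified by glutathione affinity chromatography. Universal Agilent oligonucleotide arrays were made double-stranded by primer extension, incubated with 200 nM protein in PBS (pH 7.5), then scanned and quantified. Every ungapped 8-mer was scored from probe intensities. The Universal PBM Analysis Suite gave each word an enrichment E-score, averaged over duplicate arrays.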

Sequence	PBM E-score of 8-mer
AATGGAGA	-0.157 ± 0.08
AGGCAAAG	-0.173 ± 0.09
ACTAGTCT	-0.0838 ± 0.011
CGGTAGGA	-0.168 ± 0.021
GCCGCCGA	0.0456 ± 0.048
ATTCACGA	0.29 ± 0.0094
GACCCTGC	-0.037 ± 0.062
AGGGATAA	-0.203 ± 0.032
TACAAGTA	-0.118 ± 0.012
GCACCGGC	-0.183 ± 0.021
AGGGCGTA	0.054 ± 0.053
ATCCTACG	-0.284 ± 0.016
CGTGCCGA	0.159 ± 0.02
ATAATCCA	-0.336 ± 0.063
ATAGGGAG	0.0101 ± 0.0015
ATCTACAT	-0.0195 ± 0.017
GGGTACGA	-0.0497 ± 0.091
CCCACTTC	0.1799 ± 0.00066
ATATCCAG	-0.177 ± 0.02
TAAACATA	-0.133 ± 0.029
CCGGTCGA	-0.1 ± 0.056
AAACATAA	-0.0683 ± 0.041

Sequence	PBM E-score of 8-mer
GATGTTCA	0.161 ± 0.013
GACGGTCC	-0.0974 ± 0.024
ACAAGTTG	0.274 ± 0.0084
CAACGGGC	-0.103 ± 0.1
AACAAACA	0.0143 ± 0.064
GCCAACGA	0.0922 ± 0.0074
AAATTTAG	-0.128 ± 0.1
CCGGAGCG	-0.0906 ± 0.03
CCTGCGTC	-0.101 ± 0.018
CTGTTATA	0.184 ± 0.016
AAGCTATT	-0.242 ± 0.06
ACGACGAG	0.0538 ± 0.051
GATTGTAA	-0.226 ± 0.0084
CAACTTAG	0.123 ± 0.042
AAACGGAG	-0.092 ± 0.077
CCGAAGTC	-0.117 ± 0.045
CTACGCCA	-0.028 ± 0.049
GCACACCC	0.24 ± 0.055
ACTACGCT	-0.146 ± 0.009
TCAGGGCA	-0.159 ± 0.0023
TGCATCCA	0.0545 ± 0.011
TCTGTTAA	0.117 ± 0.056

Sequence	PBM E-score of 8-mer
AGCACGCA	0.133 ± 0.057
AAACCCCT	-0.0778 ± 0.056
ATTAGAAC	-0.161 ± 0.0031
ACATGAGA	0.00905 ± 0.019
ACGGGTTG	0.00984 ± 0.068
GGTAAGCA	-0.0891 ± 0.041
ATGGGCGC	0.0518 ± 0.0048
TATCAGGA	-0.121 ± 0.0063
ACAGGTAC	0.101 ± 0.064
CAAACATC	0.131 ± 0.015
AACGCGCC	0.187 ± 0.0068
AAATAGTT	-0.0971 ± 0.021
CCCATTGC	-0.0492 ± 0.012
GCGGACGC	0.0267 ± 0.032
CTCGACTC	0.02 ± 0.016
ACCTACAA	-0.0275 ± 0.012
ATGGTAAG	-0.0662 ± 0.042
GAAATTCC	-0.208 ± 0.052
CACCCTAA	0.225 ± 0.021
GCGCTCAA	-0.00447 ± 0.036
CATTCTGA	-0.223 ± 0.048
GGATGGAC	-0.191 ± 0.032

Sequence	PBM E-score of 8-mer
ACAGTTCA	0.136 ± 0.046
CGCCTCCA	0.156 ± 0.028
ATCACTGC	-0.0346 ± 0.0018
GTCTGTAA	-0.076 ± 0.08
GAACGATC	-0.116 ± 0.037
TCACTGGA	-0.0222 ± 0.052
CCTCCCGA	-0.00356 ± 0.09
CTACCCGC	-0.00509 ± 0.015
AGTTAAAC	-0.196 ± 0.034
AACCATGC	-0.035 ± 0.047
ACGGCCAG	0.0877 ± 0.014
AAAGTCAA	-0.0861 ± 0.02
GCTCTGAC	-0.205 ± 0.092
ACCACATG	0.0223 ± 0.078
CCGGAACA	-0.0637 ± 0.001
GGCCCAAC	-0.179 ± 0.037
TAAATGAA	-0.251 ± 0.033
ACTTAGGC	-0.0594 ± 0.1
ACCCCGTC	0.0195 ± 0.049
CTGCCAAC	0.0539 ± 0.0096
CACTCTAG	0.223 ± 0.0029
CCCGGAGG	-0.219 ± 0.053

Sequence	PBM E-score of 8-mer
GATCACAC	0.451 ± 0.014
AGGGTTTC	-0.0564 ± 0.037
CGGTTCCA	-0.0723 ± 0.017
GCTGTCAC	0.3624 ± 0.0017
AGAACGGG	0.0952 ± 0.0063
CTGAAAAA	-0.055 ± 0.01
CCTTATTC	-0.2061 ± 0.00076
ACAACGTA	-0.0174 ± 0.061
ACACCGCC	0.223 ± 0.027
CGGCCCCG	-0.277 ± 0.033
AGGGTTAC	-0.0859 ± 0.069
AAATCAAT	0.0923 ± 0.026
GCAGGCAA	-0.216 ± 0.011
CTATCTAA	-0.0551 ± 0.063
CAACCGCG	0.1 ± 0.0095
AACAAGAT	-0.0647 ± 0.12
CGATGCAC	-0.12 ± 0.041
AGTCCAGG	-0.336 ± 0.027
ATAGGAGA	-0.25 ± 0.028
GGCCGTAA	-0.278 ± 0.011
AGCTAGAT	-0.239 ± 0.025
